# According to PubChem BioAssay (NCATS):
# Inconclusive results, whose numbers are uncertain, are shown with a selection of clear calls. Potencies of inconclusive entries are doubtful fits and often do not repeat. Calls of active or inactive are those of the source. Calls follow the shape of the dose curve; as a rule, active = well fitted curve in the direction sought with a large enough effect; inconclusive = small, poorly fitted or top-dose-only effect, or another doubt; inactive = no such curve, though single readings can be large; an effect the other way counts as inactive or inconclusive.
# Columns and labels:
# [1] = Viability qHTS for spleen associated tyrosine kinase inhibitor (SYKi) drug resistant MV4-11 cells (AID 1963824); also: nearly all actives have a fitted effect of over 35% in size
# Outline: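 SYK inhibitor-resistant MV4-11 AML cells, 500 per well, added to predispensed compounds and incubated 72 hr at 37 C, 5% CO2. Viability measured by CellTiter-Glo luminescence after 10 min at room temperature.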
# [2] = Quantitative highthroughput screen to assess conditional lethalithy of NOMO1 cells grown in RPMI1640 with untreated serum (RPMI+s) (AID 1963876); details: NOMO1 AML cells in RPMI+serum, CellTiter-Glo viability, 48 h; viability: at 45.8 µM (top of the series); also: nearly all actives have a fitted effect of over 35% in size
# Outline: (§1)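 Each medium arm—HPLM with 10% dialyzed FBS, or RPMI1640 with 5 mM glucose and 10% untreated or dialyzed FBS—was screened against an 11-point, 3-fold compound titration for 48 h at 37 °C, with CellTiter-Glo luminescence as endpoint.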
# [3] = Quantitative highthroughput screen to assess conditional lethalithy of NOMO1 cells grown in RPMI1640 with dialyzed fetal bovine serum (RPMI+ds) (AID 1963877); also: nearly all actives have a fitted effect of over 30% in size
# Outline: as §1
# [4] = Quantitative highthroughput screen to assess conditional lethalithy of NOMO1 cells grown in Human Plasma-Like Medium with dialyzed fetal bovine serum (HPLM+ds) (AID 1963878); details: NOMO1 AML cells in HPLM+ds, CellTiter-Glo viability, 48 h; viability: at 45.8 µM (top of the series); also: nearly all actives have a fitted effect of over 35% in size
# Outline: as §1
# [5] = Quantitative highthroughput screen to assess conditional lethalithy of P12 Ichikawa cells grown in Human Plasma-Like Medium with dialyzed fetal bovine serum (HPLM+ds) (AID 1963879); details: Potency: viability; also: nearly all actives have a fitted effect of over 35% in size
# Outline: as §1
# [6] = Quantitative highthroughput screen to assess conditional lethalithy of P12 Ichikawa cells grown in RPMI1640 with untreated serum (RPMI+s) (AID 1963881); details: Potency: viability; also: nearly all actives have a fitted effect of over 35% in size
# Outline: as §1
# [7] = Quantitative highthroughput screen to assess conditional lethalithy of SEM cells grown in RPMI1640 with unreated serum (RPMI+s) (AID 1963883); details: SEM B-ALL cells, CellTiter-Glo viability, 48 h; viability: at 45.8 µM (top of the series); also: nearly all actives have a fitted effect of over 35% in size
# Outline: as §1
# [8] = Quantitative highthroughput screen to assess conditional lethalithy of SEM cells grown in RPMI1640 with dialyzed fetal bovine serum (RPMI+ds) (AID 1963884); details: SEM B-ALL cells, RPMI+dialyzed FBS, CellTiter-Glo viability, 48 h; viability: at 45.8 µM (top of the series); also: nearly all actives have a fitted effect of over 35% in size
# Outline: as §1
# [9] = Cellular viability qHTS for adrenocortical cancer (ACC) cell line SW-13 (AID 1963989); details: SW-13 ACC cells viability, CellTiter-Glo, 48 h; activity (max response): stronger effect = lower value; also: nearly all actives have a fitted effect of over 65% in size
# Outline: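 IC50 and maximal-response values come from four-parameter logistic fits of titration data. SW-13 cells in serum-free medium received compounds (up to 46 uM final) for 48 h before CellTiter-Glo luminescence.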
# [10] = Quantitative highthroughput screen to assess conditional lethalithy of P12 Ichikawa cells grown in RPMI1640 with dialyzed fetal bovine serum (RPMI+ds) (AID 1963880); details: Potency: P12-Ichikawa viability; also: nearly all actives have a fitted effect of over 35% in size
# Outline: as §1
# [11] = Quantitative highthroughput screen to assess conditional lethalithy of SEM cells grown in Human Plasma-Like Medium with dialyzed fetal bovine serum (HPLM+ds) (AID 1963882); also: nearly all actives have a fitted effect of over 35% in size
# Outline: as §1
# [12] = Cellular viability qHTS for adrenocortical cancer (ACC) cell line NCI-H295R (AID 1963990); details: CellTiter-Glo ATP luminescence, 48 h; series mostly up to 46.1 µM; also: nearly all actives have a fitted effect of over 60% in size
# Outline: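 Adrenocortical carcinoma cells, suspended at 300 000 cells/mL in serum-free DMEM plus ITS, rested overnight before pin transfer of compound. After two days' incubation, ATP-dependent luminescence was recorded and curve-fitted.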
# Potency is read from the fitted curve at half-maximal effect; tags tell the direction and shape of the fitted curve.
smiles,measurement,setting,value
COc1cc(CCC2=NN=C(NC(=O)c3ccc(N4C[C@@H](C)N[C@@H](C)C4)cc3)C2)cc(OC)c1,Potency,[1],active: 1.46 µM
COC(=O)Nc1ccc(-c2nc(N3CCOCC3)c3cnn(C4CCN(C(=O)OC)CC4)c3n2)cc1,Potency,[1],active: 1.05 µM
same,Potency,[2],"inconclusive: 4.69 µM [cytotoxic, full curve]"
same,Potency,[3],"inconclusive: 3.72 µM [cytotoxic, partial curve]"
same,Potency,[4],"inconclusive: 0.264 µM [cytotoxic, full curve]"
same,Potency,[5],"inconclusive: 0.833 µM [cytotoxic, full curve]"
same,Potency,[6],"inconclusive: 2.09 µM [cytotoxic, full curve]"
same,Potency,[7],"inconclusive: 2.35 µM [cytotoxic, full curve]"
same,Potency,[8],"inconclusive: 2.35 µM [cytotoxic, full curve]"
same,Potency,[9],"inconclusive: 2.24 µM [cytotoxic, full curve]"
CC(O)C(O)/C=C/C=C/C(=O)O[C@@H]1C=C(C(=O)O)[C@](O)(CO)[C@@]2(C)CCCC(C)(C)[C@H]12 (some centres undefined),Potency,[1],inactive
CN(C)CCOC(c1ccccc1)c1ccccc1,Potency,[1],"inconclusive: 14.8 µM [cytotoxic, partial curve, poor fit] and inactive"
same,Potency,[2],"inconclusive: 23.5 µM [cytotoxic, partial curve]"
same,Potency,[3],"inconclusive: 37.2 µM [cytotoxic, single point]"
same,Potency,[4],inactive
same,Potency,[5],"inconclusive: 37.2 µM [cytotoxic, partial curve, poor fit]"
same,Potency,[10],"inconclusive: 18.7 µM [cytotoxic, partial curve, poor fit]"
same,Potency,[8],inactive
CCC(=O)O[C@H]1C(C)(C)[C@H]([C@@H](O)C(=O)OC)[C@]2(C)C(=O)[C@@]1(O)[C@H]1O[C@]13C1CC(=O)O[C@@H](c4ccoc4)[C@]1(C)CCC32 (some centres undefined),Potency,[1],"inconclusive: 7.69 µM [cytotoxic, partial curve, poor fit]"
Oc1ccc(C2CCN(c3ccnc4ccccc34)CC2)cc1O,Potency,[1],active: 1.86 µM
same,Potency,[2],"inconclusive: 23.5 µM [cytotoxic, single point]"
same,Potency,[3],"inconclusive: 26.4 µM [cytotoxic, single point]"
same,Potency,[4],"inconclusive: 16.6 µM [cytotoxic, partial curve]"
same,Potency,[5],"inconclusive: 2.96 µM [cytotoxic, full curve]"
same,Potency,[6],"inconclusive: 4.18 µM [cytotoxic, full curve]"
same,Potency,[11],"inconclusive: 13.2 µM [cytotoxic, partial curve, poor fit]"
same,Potency,[7],active: 11.8 µM
same,Potency,[8],"inconclusive: 4.18 µM [cytotoxic, full curve, poor fit]"
same,Potency,[9],"inconclusive: 10 µM [cytotoxic, partial curve]"
C[C@H]1[C@H](NC(=O)/C(=N/OC(C)(C)C(=O)O)c2csc(N)n2)C(=O)N1S(=O)(=O)O (stereo in doubt),Potency,[1],inactive
COC1OC(O)C2(CCC3(O2)C(C)CC2OC(=O)C4(C)CCCC3(C)C24)C1O (centres undefined),Potency,[1],inactive
CN1CCCC(n2nc(Cc3ccc(Cl)cc3)c3ccccc3c2=O)CC1 (centres undefined),Potency,[1],active: 26.6 µM
same,Potency,[2],"inconclusive: 18.7 µM [cytotoxic, partial curve]"
same,Potency,[3],"inconclusive: 23.5 µM [cytotoxic, partial curve]"
same,Potency,[4],"inconclusive: 10.5 µM [cytotoxic, partial curve]"
same,Potency,[5],"inconclusive: 18.7 µM [cytotoxic, partial curve]"
same,Potency,[10],"inconclusive: 20.9 µM [cytotoxic, partial curve]"
same,Potency,[6],"inconclusive: 26.4 µM [cytotoxic, single point]"
same,Potency,[11],"inconclusive: 20.9 µM [cytotoxic, single point]"
same,Potency,[7],inactive
same,Potency,[8],inactive
same,Potency,[9],"inconclusive: 18.4 µM [cytotoxic, single point]"
O=C(O)/C=C/c1ccc(-c2ccc(O)c(C34CC5CC(CC(C5)C3)C4)c2)cc1,Potency,[1],active: 0.103 µM
CC(C)(Oc1ccc(C2CC2(Cl)Cl)cc1)C(=O)O (centres undefined),Potency,[1],inconclusive: 0.8 nM and inactive
same,Potency,[2],"inconclusive: 67.9 µM [cytotoxic, single point]"
same,Potency,[3],"inconclusive: 67.9 µM [cytotoxic, single point]"
same,Potency,[4],"inconclusive: 67.9 µM [cytotoxic, single point]"
same,Potency,[5],"inconclusive: 67.9 µM [cytotoxic, single point]"
same,Potency,[10],"inconclusive: 67.9 µM [cytotoxic, single point]"
same,Potency,[6],"inconclusive: 60.5 µM [cytotoxic, single point]"
same,Potency,[11],"inconclusive: 48.1 µM [cytotoxic, single point]"
same,Potency,[7],"inconclusive: 85.5 µM [cytotoxic, single point]"
same,Potency,[8],"inconclusive: 67.9 µM [cytotoxic, single point]"
same,Potency,[12],"inconclusive: 1.12 µM [cytotoxic, full curve, poor fit]"
